Results on 55 compounds are retold here after publication PMC4336329 (PLoS ONE, 2015).

Among all 310,000 compounds or so, about 14,000 (4.5%) showed an effect of 50% or more. Effects have a minus sign here. The list shows a part of the results.
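Note: peak tail current of the secondary pulse compared with the same well before compound.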

In this assay the target is human ether-à-go-go-related gene (hERG) potassium channel (human, UniProt Q12809). Put plainly: primary screen, population patch clamp on CHO cells stably expressing hERG.
Chain of human ether-à-go-go-related gene (hERG) potassium channel (Q12809 whole entry, looked up): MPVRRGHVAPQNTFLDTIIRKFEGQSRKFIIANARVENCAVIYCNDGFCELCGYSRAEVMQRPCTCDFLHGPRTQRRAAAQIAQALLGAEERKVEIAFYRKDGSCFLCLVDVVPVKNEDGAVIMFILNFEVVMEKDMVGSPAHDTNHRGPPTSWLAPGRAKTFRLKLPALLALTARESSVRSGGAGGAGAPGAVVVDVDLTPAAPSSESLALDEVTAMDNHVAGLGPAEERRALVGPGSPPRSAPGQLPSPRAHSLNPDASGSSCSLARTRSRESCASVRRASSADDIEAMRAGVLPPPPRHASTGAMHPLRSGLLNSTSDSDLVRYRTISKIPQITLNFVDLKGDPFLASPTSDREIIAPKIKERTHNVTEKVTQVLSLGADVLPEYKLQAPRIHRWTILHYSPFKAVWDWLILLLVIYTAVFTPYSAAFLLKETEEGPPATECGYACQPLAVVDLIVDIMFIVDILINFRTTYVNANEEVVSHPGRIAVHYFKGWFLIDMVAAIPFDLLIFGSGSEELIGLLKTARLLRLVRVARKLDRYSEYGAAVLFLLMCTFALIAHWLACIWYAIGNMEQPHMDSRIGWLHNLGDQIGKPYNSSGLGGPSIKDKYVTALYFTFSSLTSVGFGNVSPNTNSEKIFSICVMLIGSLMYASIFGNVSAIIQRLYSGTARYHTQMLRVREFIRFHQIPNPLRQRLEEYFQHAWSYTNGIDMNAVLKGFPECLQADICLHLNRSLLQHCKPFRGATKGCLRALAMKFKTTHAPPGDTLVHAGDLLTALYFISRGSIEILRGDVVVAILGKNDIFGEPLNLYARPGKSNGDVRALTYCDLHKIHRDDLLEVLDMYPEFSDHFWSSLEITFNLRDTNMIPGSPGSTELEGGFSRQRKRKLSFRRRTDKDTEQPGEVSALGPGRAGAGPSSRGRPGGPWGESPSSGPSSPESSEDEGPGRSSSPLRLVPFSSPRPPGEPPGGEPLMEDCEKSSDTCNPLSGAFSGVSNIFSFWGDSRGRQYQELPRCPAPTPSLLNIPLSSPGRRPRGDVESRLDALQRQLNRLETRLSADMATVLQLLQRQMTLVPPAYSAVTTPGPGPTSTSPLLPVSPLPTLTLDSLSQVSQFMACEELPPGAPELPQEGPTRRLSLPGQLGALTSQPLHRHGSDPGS
Regarding `CCc1c(C)nc2ncnn2c1N1CCCC(C(=O)NCc2cccs2)C1` (stereo not shown), the “hERG current change (%, negative = inhibition) at 10uM” value was -19.1%.

Consider `CN1CCN(c2ccc(NC(=O)c3ccco3)cc2Cl)CC1`, for which the “hERG current change (%, negative = inhibition) at 10uM” value is listed as -16.8%.

With `CN(CC(=O)Nc1ccccc1Cl)C(=O)CCSc1ccc(F)cc1`, the “hERG current change (%, negative = inhibition) at 10uM” value is -21.1%.

Regarding `COc1ccc(OC)c(Nc2nc(-c3sc(NC(=O)c4ccccc4)nc3C)cs2)c1`, the “hERG current change (%, negative = inhibition) at 10uM” value worked out at 11.2%.

Take `COc1ccc(C(=O)Oc2cc3c4c(c2)C(C)=CC(C)(C)N4C(=O)C3=O)cc1OC`: the “hERG current change (%, negative = inhibition) at 10uM” value is listed as -2.65%.

Regarding `CC(C)c1ccc(NC(=O)C2CSC3(C)CCC(=O)N23)cc1` (stereo not shown), the “hERG current change (%, negative = inhibition) at 10uM” value is on record as 2.4%.

Consider `Cc1cc(C)c(C#N)c(N2CCN(c3ccccc3)CC2)n1`, for which the “hERG current change (%, negative = inhibition) at 10uM” value is on record as 5.03%.

With `O=C(O)c1cccnc1Br`, the “hERG current change (%, negative = inhibition) at 10uM” value was found to be 9.22%.

For the compound `CCn1c(-c2csc3ccccc23)n[nH]c1=S`, the “hERG current change (%, negative = inhibition) at 10uM” value is recorded as 2.39%.

`NNC(=O)CNC(c1ccccc1)c1cc(Br)ccc1NC(=O)c1cccc(Cl)c1` (stereo not shown): the “hERG current change (%, negative = inhibition) at 10uM” value is on record as -25.2%.

`Cc1ccc(-n2nc(C)c3c(C)c(CCC(=O)NC(C)c4ccccc4)c(C)nc32)cc1` (stereo not shown): the “hERG current change (%, negative = inhibition) at 10uM” value is 13.5%.

For `Cc1cccc(C(=O)N/N=C/c2ccccn2)c1`, the “hERG current change (%, negative = inhibition) at 10uM” value is -8.78%.

In the case of `Cc1ccc(C)c(S(=O)(=O)N2CCN(C(=O)c3ccccc3Cc3ccccc3)CC2)c1`, the “hERG current change (%, negative = inhibition) at 10uM” value is 1.31%.

`O=C1NC2=C(C(=O)OC2)C(c2ccc(OC(F)(F)F)cc2)N1` (stereo not shown): the “hERG current change (%, negative = inhibition) at 10uM” value stood at 3.82%.

Turning to `COc1cccc(Nc2ccc(N3CCCCC3)cc2)c1OC`, the “hERG current change (%, negative = inhibition) at 10uM” value is recorded as -7.84%.

For `CCOC(=O)c1ccc(NC(=O)C2CCCN(c3cnccn3)C2)cc1` (stereo not shown), the “hERG current change (%, negative = inhibition) at 10uM” value is reported as -11.7%.

On to `CC1(C)OC(=O)N(CCc2ccccc2)C1(C)O` (stereo not shown), for which the “hERG current change (%, negative = inhibition) at 10uM” value was -8.75%.

On to `Fc1ccc2[nH]c3c(N4CCc5ccccc5C4)ncnc3c2c1`, for which the “hERG current change (%, negative = inhibition) at 10uM” value came out at 19.3%.

Regarding `O=C(NCc1ccco1)c1cc2nc(-c3ccc4c(c3)OCO4)cc(C(F)(F)F)n2n1`, the “hERG current change (%, negative = inhibition) at 10uM” value was -14.2%.

`Cc1cccc(NC(=O)c2cccc(NC(=O)Cc3cccs3)c2)c1`: the “hERG current change (%, negative = inhibition) at 10uM” value is recorded as 4.72%.

Turning to `CN(C(=O)COC(=O)/C=C/c1ccc(Cl)c(Cl)c1)c1c(N)n(Cc2ccccc2)c(=O)[nH]c1=O`, the “hERG current change (%, negative = inhibition) at 10uM” value is given as 17.2%.

Take `NS(=O)(=O)c1ccc(NC(=S)NC(=O)/C=C/c2ccco2)cc1`: the “hERG current change (%, negative = inhibition) at 10uM” value stood at 15.2%.

For `COc1cccc(-c2cc(C(=O)N3CCN(c4ncccn4)CC3)c3ccccc3n2)c1`, the “hERG current change (%, negative = inhibition) at 10uM” value is listed as -8.78%.

As for `O=S(=O)(c1ccc(F)c(F)c1)N1CCN(c2ncccn2)CC1`, the “hERG current change (%, negative = inhibition) at 10uM” value was found to be 13.7%.

As to `COc1cccc(C(=O)CN2C(=O)C(C)(C)Oc3ccc(C(=O)N4CCOCC4)cc32)c1`, the “hERG current change (%, negative = inhibition) at 10uM” value came to 5.13%.

`CCCNC(=O)c1c(CSc2ccccc2)noc1C(=O)NCc1ccccc1`: the “hERG current change (%, negative = inhibition) at 10uM” value is on record as 0.00178%.

With `CCC(C(=O)N1CC2(C)CC1CC(C)(C)C2)N1C(=O)c2ccccc2C1=O` (stereo not shown), the “hERG current change (%, negative = inhibition) at 10uM” value was -18.3%.

Take `CN1CC(=O)N=C1N.Cl`: the “hERG current change (%, negative = inhibition) at 10uM” value is reported as -50.1%.

As to `Cc1cccc(C)c1Nc1nc2ccccc2o1`, the “hERG current change (%, negative = inhibition) at 10uM” value is given as -21.9%.

Turning to `C=CCN(c1ccccc1)S(=O)(=O)c1cccc(C(=O)N(CC)CC(=O)Nc2c(F)cccc2F)c1`, the “hERG current change (%, negative = inhibition) at 10uM” value is on record as 11.3%.

As to `c1ccc2c(COn3nnc4ccccc43)cccc2c1`, the “hERG current change (%, negative = inhibition) at 10uM” value is -23.2%.

For the compound `Nc1ccc(CNC(=O)OCC2c3ccccc3-c3ccccc32)cc1`, the “hERG current change (%, negative = inhibition) at 10uM” value is 1.51%.

Regarding `CC(C)c1ccc2oc(-c3cc(N)ccc3O)nc2c1`, the “hERG current change (%, negative = inhibition) at 10uM” value is 3.92%.

With `COc1cc(/C=N/Nc2nc(N3CCCC3)nc(N3CCCC3)n2)ccc1O`, the “hERG current change (%, negative = inhibition) at 10uM” value is on record as -37.7%.

With `COc1ccc(CNCCC2(O)CC(C)N(C)CC2C)cc1OC.Cl` (stereo not shown), the “hERG current change (%, negative = inhibition) at 10uM” value was 6.43%.

On to `COc1ccc(NC(=O)Nc2ccc(F)cc2F)c(C)c1`, for which the “hERG current change (%, negative = inhibition) at 10uM” value amounted to 11.7%.

In the case of `CC1(C)CC(=O)/C(=C(\O)c2ccccc2)C(=NCCc2ccccc2)C1`, the “hERG current change (%, negative = inhibition) at 10uM” value is reported as -5.55%.

`CC(C)c1ccc(NC(=O)CCNC(=O)Cn2cnc3ccccc3c2=O)cc1`: the “hERG current change (%, negative = inhibition) at 10uM” value is recorded as 22.9%.

As for `C/C=C/c1ccc(OCCCCN2CC(C)CC(C)C2)c(OC)c1.O=C(O)C(=O)O` (stereo not shown), the “hERG current change (%, negative = inhibition) at 10uM” value is given as -81.6%.

Regarding `S=c1[nH]nc(-c2ccc(Cl)cc2)n1/N=C/C=C/c1ccco1`, the “hERG current change (%, negative = inhibition) at 10uM” value turned out to be 15.3%.

As to `Cc1cc(N=CC2=C(O)CCCC2=O)no1`, the “hERG current change (%, negative = inhibition) at 10uM” value is 5.28%.

Take `Cc1ccc(S(=O)(=O)N2CCN(C(=O)c3n[nH]c4ccccc34)CC2)cc1`: the “hERG current change (%, negative = inhibition) at 10uM” value is given as 0.636%.

Turning to `CCCOC1(NC(=O)c2ccccc2)C(C)=CC(=O)C=C1C`, the “hERG current change (%, negative = inhibition) at 10uM” value is on record as -16.7%.

Turning to `C[C@H](NC(=O)c1cc2c(cn1)[nH]c1ccccc12)C(=O)O`, the “hERG current change (%, negative = inhibition) at 10uM” value is listed as 18.4%.

Consider `COc1ccc(N2CCN(S(=O)(=O)CCNC(=O)/C=C/c3ccc4c(c3)OCO4)CC2)cc1`, for which the “hERG current change (%, negative = inhibition) at 10uM” value amounted to 9.18%.

In the case of `O=C(CCn1c(=O)oc2ccccc21)N1CCOCC1`, the “hERG current change (%, negative = inhibition) at 10uM” value is recorded as 18.7%.

For the compound `CCO[C@@H]1OC(C(=O)N2CCN(Cc3ccc4c(c3)OCO4)CC2)=C[C@H](c2csc3ccccc23)[C@H]1CCCO`, the “hERG current change (%, negative = inhibition) at 10uM” value is listed as -7.31%.

In the case of `CCOc1ccc(S(=O)(=O)NCCC(=O)NCC(c2cccs2)N2CCOCC2)cc1` (stereo not shown), the “hERG current change (%, negative = inhibition) at 10uM” value is listed as 21.2%.

On to `Cc1cc(C(=O)N[C@@H](c2ccccc2)[C@]2(C)C[C@H]2[C@@H](C)C(=O)Nc2ccc3ccccc3c2)no1`, for which the “hERG current change (%, negative = inhibition) at 10uM” value stood at 2.67%.

For the compound `COC1=C/C(=C/c2c(N)n3nc(CC(=O)N4CCCCC4)sc3nc2=O)C=CC1=O`, the “hERG current change (%, negative = inhibition) at 10uM” value came out at 11%.

Take `O=C(O)COc1ccccc1/C=N/NC(=O)CSc1nnc(-c2ccc(Cl)cc2)n1C1CCCCC1`: the “hERG current change (%, negative = inhibition) at 10uM” value was determined as 11.9%.

As for `C=CCc1c(C)nc2c(C)cccc2c1SC(=N)N.Cl`, the “hERG current change (%, negative = inhibition) at 10uM” value worked out at 2.29%.

Turning to `CC(C)(C)OC(=O)NCCc1nnc(SCc2ccc(Cl)cc2)o1`, the “hERG current change (%, negative = inhibition) at 10uM” value is listed as -43.2%.

Consider `CCOC(=O)N1CCC(NC(=O)CCc2cn(C)c3ccccc23)CC1`, for which the “hERG current change (%, negative = inhibition) at 10uM” value is -16%.

Regarding `COc1cc(CC(NC(C)=O)C(=O)NC2CCN(c3nc(C)cc(C)c3C#N)CC2)cc(OC)c1` (stereo not shown), the “hERG current change (%, negative = inhibition) at 10uM” value is listed as -4.62%.
